Consider two molecules from patent publication US20150079114A1, “DR5 LIGAND DRUG CONJUGATES” (Seattle Genetics, Inc., priority 2012, published 2015).

The subject of series [1] is all tumor cell lines used for this assay (A375, NCI-H2122, HCT 15, SK-OV-3, LoVo, A2780, A549, Caki-2, HCT 116, NCI-H1975, MDA-MB-231, U-87 MG). Nature of the series: In vitro cytotoxic activity, CellTiter Glo cell viability, all 12 cell lines. The class given is cell-based. As to conditions: 72 hr, with goat anti-human IgG Fc antibody, FIGS. 1-12.
Series [2] relates to Human ovarian carcinoma cell line A2780. Nature of the series: A2780 xenograft model. To be noted: 3 mgkg intravenous, Days 11, 18 and 25, FIG. 14. It is filed as in vivo, nude mice.
Series [3] has as its system Human renal cell carcinoma cell line Caki-2. Nature of the series: Caki-2 xenograft model. To be noted: 3 mgkg intravenous, Days 18, 25 and 32, male nude mice, FIG. 15. It is filed as in vivo.
Series [4] concerns Human colorectal adenocarcinoma cell line HCT-116. Nature of the series: HCT 116 xenograft model. The class given is in vivo, nude mice. As to conditions: 3 mgkg intravenous, Days 11, 18 and 25, FIG. 16.
Series [5] relates to Human colorectal adenocarcinoma cell line LoVo. Nature of the series: LoVo xenograft model. It is filed as in vivo, nude mice. To be noted: 3 mgkg intravenous, Days 10, 17 and 24, FIG. 18.
The subject of series [6] is Human lung carcinoma cell line NCI-H1299. Nature of the series: NCI-H1299 xenograft model. The class given is in vivo, nude mice. As to conditions: 3 mgkg intravenous, Days 14, 21 and 28, FIG. 19.
For series [7], the system named is Human lung adenocarcinoma cell line NCI-H1975. Nature of the series: NCI-H1975 xenograft model. The class given is in vivo, nude mice. As to conditions: 3 mgkg intravenous, Days 13, 20 and 27, FIG. 20.
Series [8] relates to Human lung adenocarcinoma cell line NCI-H2122. Nature of the series: NCI-H2122 xenograft model. It is filed as in vivo, nude mice. As to conditions: 1 mgkg intravenous, Days 15, 22 and 29, FIG. 21.
The test system of series [9] is Human ovarian adenocarcinoma cell line SK-OV-3. Nature of the series: SK-OV-3 xenograft model. It is filed as in vivo, nude mice. As to conditions: 3 mgkg intravenous, Days 14, 21 and 28, FIG. 22.
In series [10] the test system is Human glioblastoma cell line U-87 MG. Nature of the series: U-87 MG xenograft model. The class given is in vivo, nude mice. As to conditions: 3 mgkg intravenous, Days 7, 14 and 21, FIG. 23.

B1: hB273-vc-MMAE: antibody drug conjugate of hB273 conjugated with mc-vc-MMAE, average drug loading about 3.5 to 4.5 (conjugate)
heavy: EVQLVQSGAEVKKPGASVKVSCKASGYSFIGYFMNWMKQSPGMSLEWIGRFNPYNEDTFYNQKFKGKATLTVDKSTSTAYMELSSLRSEDTAVYFCARSAYYFDSGGYFDYWGQGTLVTVSSASTKGPSVFPLAPSSKSTSGGTAALGCLVKDYFPEPVTVSWNSGALTSGVHTFPAVLQSSGLYSLSSVVTVPSSSLGTQTYICNVNHKPSNTKVDKRV[sequence of human IgG1 Fc omitted]
light: DIVMTQSPLSLPVTPGEPASISCRSSQSLVHSNKNTYLHWYLQKPGQSPQLLIYKVSNRFSGVPDRFSGSGSGTDFTLKISRVEAEDVGVYYCSQSTHVPWTFGPGTKVEIKRTVAAPSVFIFPPSDEQLKSGTASVVCLLNNFYPREAKVQWKVDNALQSGNSQESVTEQDSKDSTYSLSSTLTLSKADYEKHKVYACEVTHQGLSSPVTKSFNRGEC
In the case of B1, in series [1], the “cytotoxic activity compared with hTRA-8-mcMMAF” value is on record as “more potent cytotoxic activity than hTRA-8-mcMMAF”. Also, the “anti-tumor efficacy compared with hTRA-8-mcMMAF” value in series [2], in [4], in [5], in series [6], in [7] and in series [8] was “more potent anti-tumor efficacy than hTRA-8-mcMMAF” throughout. Further, the “anti-tumor efficacy compared with hTRA-8-mcMMAF” value in series [9] and in series [10] was “more potent anti-tumor efficacy than hTRA-8-mcMMAF” each time. Further, the anti-tumor activities result in series [3] is “none of the antibodies (hB273, hB273-vcMMAE, hB273-mcMMAF and hTRA-8-mcMMAF) showed any anti-tumor activities”.

B2: hB273: humanized anti-DR5 antibody B273, heavy chain SEQ ID NO:9 (or residues 1-451), light chain SEQ ID NO:10 (antibody)
heavy: EVQLVQSGAEVKKPGASVKVSCKASGYSFIGYFMNWMKQSPGMSLEWIGRFNPYNEDTFYNQKFKGKATLTVDKSTSTAYMELSSLRSEDTAVYFCARSAYYFDSGGYFDYWGQGTLVTVSSASTKGPSVFPLAPSSKSTSGGTAALGCLVKDYFPEPVTVSWNSGALTSGVHTFPAVLQSSGLYSLSSVVTVPSSSLGTQTYICNVNHKPSNTKVDKRV[sequence of human IgG1 Fc omitted]
light: DIVMTQSPLSLPVTPGEPASISCRSSQSLVHSNKNTYLHWYLQKPGQSPQLLIYKVSNRFSGVPDRFSGSGSGTDFTLKISRVEAEDVGVYYCSQSTHVPWTFGPGTKVEIKRTVAAPSVFIFPPSDEQLKSGTASVVCLLNNFYPREAKVQWKVDNALQSGNSQESVTEQDSKDSTYSLSSTLTLSKADYEKHKVYACEVTHQGLSSPVTKSFNRGEC
modifications: synthetic anti-human death receptor 5 (DR5, TRAIL-R2) monoclonal antibody hB273 heavy chain; synthetic anti-human death receptor 5 (DR5, TRAIL-R2) monoclonal antibody hB273 light chain
As for B2, the anti-tumor activities result in series [3] was “none of the antibodies (hB273, hB273-vcMMAE, hB273-mcMMAF and hTRA-8-mcMMAF) showed any anti-tumor activities”.
